PMC10470536
No constants are given. Whether binding was seen depends on the method and setting. Binding seen in cells or lysates may run through a third protein. Some binding calls cover weakened binding; strength is not graded here. For part of these data: Tags and fused reporters may be left off the sequences shown.

T1: RicA-3FL (FLAG-tagged RicA) (B. subtilis) (UniProt O31779)
T1 sequence: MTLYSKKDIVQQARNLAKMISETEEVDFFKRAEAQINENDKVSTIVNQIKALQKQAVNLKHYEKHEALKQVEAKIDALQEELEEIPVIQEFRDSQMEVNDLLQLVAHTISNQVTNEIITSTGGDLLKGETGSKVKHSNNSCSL

T2: RicT-3FL (3x FLAG-tagged RicT) (B. subtilis) (UniProt P37541)
T2 sequence: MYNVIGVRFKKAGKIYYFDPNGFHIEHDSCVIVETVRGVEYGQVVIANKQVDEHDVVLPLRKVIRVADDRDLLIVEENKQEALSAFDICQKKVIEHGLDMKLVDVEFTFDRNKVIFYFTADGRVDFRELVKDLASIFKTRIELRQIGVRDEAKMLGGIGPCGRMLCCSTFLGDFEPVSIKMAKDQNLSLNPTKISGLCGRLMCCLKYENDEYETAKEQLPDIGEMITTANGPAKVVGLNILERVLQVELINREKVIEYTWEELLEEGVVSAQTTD

T3: RicF-3FL (FLAG-tagged RicF) (B. subtilis) (UniProt O34412)
T3 sequence: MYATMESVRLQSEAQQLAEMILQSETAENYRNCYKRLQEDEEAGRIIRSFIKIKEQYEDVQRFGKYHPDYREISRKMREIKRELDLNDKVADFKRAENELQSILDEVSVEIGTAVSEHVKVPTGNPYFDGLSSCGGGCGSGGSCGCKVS

T4: RicF-3FL (FLAG-tagged RicF) (B. subtilis), O34412
T4 chain: T3 sequence

T5: Rny-3FL (RNase Y with a C-terminal 3x FLAG epitope) (B. subtilis), O31774
T5 chain: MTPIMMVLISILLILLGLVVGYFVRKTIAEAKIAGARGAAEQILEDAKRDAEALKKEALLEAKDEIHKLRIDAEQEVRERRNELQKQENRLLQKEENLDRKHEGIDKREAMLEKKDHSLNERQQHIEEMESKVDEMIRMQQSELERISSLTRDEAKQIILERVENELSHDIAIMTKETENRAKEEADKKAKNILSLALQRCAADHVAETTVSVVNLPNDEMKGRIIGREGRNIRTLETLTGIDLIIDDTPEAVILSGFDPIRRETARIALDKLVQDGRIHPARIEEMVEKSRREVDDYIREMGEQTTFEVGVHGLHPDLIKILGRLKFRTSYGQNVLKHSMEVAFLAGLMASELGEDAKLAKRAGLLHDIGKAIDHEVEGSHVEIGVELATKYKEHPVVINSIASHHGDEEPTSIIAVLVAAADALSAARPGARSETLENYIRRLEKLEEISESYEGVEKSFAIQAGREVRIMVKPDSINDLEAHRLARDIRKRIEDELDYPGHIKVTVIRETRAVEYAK

B1: RicA (YmcA) (protein, UniProt O31779 1-143)
chain: T1 sequence
B2: RicF (YlbF) (protein, UniProt O34412 1-149)
chain: T3 sequence
B3: RicT (YaaT) (protein, UniProt P37541 1-275)
chain: T2 sequence
B4: Rny (RNase Y), O31774 1-520 (enzyme)
chain: T5 chain
B5: RicF (YlbF), O34412 1-149 (protein)
chain: T3 sequence

Key:
[1] = target: T1, RicA-3FL (FLAG-tagged RicA) (B. subtilis); assay: co-IP; called pull-down by the paper: lysate of the 3x FLAG strain (no cross-linking, RNase and DNase added, 1% Triton X100; 20 mM HEPES pH 7.4, 0.2 M NaCl) on anti-FLAG magnetic beads, 30 min at room temperature, washed with PBS, eluted with FLAG peptide; Western blot with anti-Ric or anti-Rny antiserum; eluant about 18-fold concentrated against the load
[2] = target: T2, RicT-3FL (3x FLAG-tagged RicT) (B. subtilis); assay: co-IP; anti-FLAG pull-down as a1 from RicT-3FL lysate treated beforehand with 15 mM EDTA (pH 7.5) and 10 mM potassium ferricyanide, 1 h on ice (oxidation and chelation to strip the Fe-S clusters); Western blot with anti-Rny and anti-Ric antisera
[3] = target: T3, RicF-3FL (FLAG-tagged RicF) (B. subtilis); assay: co-IP; called pull-down by the paper: lysate of the 3x FLAG strain (no cross-linking, RNase and DNase added, 1% Triton X100; 20 mM HEPES pH 7.4, 0.2 M NaCl) on anti-FLAG magnetic beads, 30 min at room temperature, washed with PBS, eluted with FLAG peptide; Western blot with anti-Ric or anti-Rny antiserum; eluant about 18-fold concentrated against the load
[4] = target: Rny-3FL (RNase Y with a C-terminal 3x FLAG epitope) (B. subtilis) (UniProt O31774); assay: as above
[5] = target: T2, RicT-3FL (3x FLAG-tagged RicT) (B. subtilis); assay: as above
[6] = target: T4, RicF-3FL (FLAG-tagged RicF) (B. …); assay: as above; conditions: remark: other sources report otherwise
[7] = target: T5, Rny-3FL (RNase Y with a C-terminal 3x …); assay: as above; conditions: remark: other sources report otherwise

Molecule | binding [1] | binding [2] | binding [3] | binding [5] | further results
Rny (RNase Y) (from UniProt O31774 1-520) (enzyme) | no binding |  |  |  | 
B1 |  | binds | binds | binds | binding [4]: no binding
B2 | binds | binds |  | binds | 
B3 | binds |  | binds |  | 
B4 |  |  |  |  | binding [6]: no binding
B5 |  |  |  |  | binding [7]: no binding
